We go through 46 compounds from PubChem BioAssay AID1508624 (National Center for Advancing Translational Sciences (NCATS), 2021).

In all, about 48,000 compounds went through this assay and about 120 (0.25%) were called active. About 4% were inconclusive and are not listed. Calls come from the whole dose curve; as a rule, active = well fitted activation curve with a large enough effect; inconclusive = small, poorly fitted or top-dose-only effect, or another doubt; inactive = no such curve, though single readings can be large or run the other way. This is one part of the list.

This experiment can be described thus: Primary qHTS for Identification of Small Molecule Activators of Huntingtin-Antisense Promoter Activity. Note: nearly all actives have a fitted effect of over 55% in size. The conditions noted are these: HEK293 HTT-AS promoter firefly luciferase reporter, 24 h; series mostly up to 57.5 µM; activity change, positive = activation: at the top concentration. Put shortly: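 HEK293 cells carrying firefly luciferase reporters were seeded at 2,500 per well in Opti-MEM and cultured for 24 h. They were then treated with compounds at up to 57.5 uM final for 24 h at 37 degrees C before Dual-Glo luminescence readout.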
(qHTS replaces the single test concentration by a dilution series.)
Regarding `Cn1c(=O)c(=O)n(C)c2cc(C(=O)NCc3ccccc3Cl)ccc21`, the “activity change, positive = activation” value was inactive: -12.7%.
The value for `COC(=O)c1scc(-c2ccc(C)cc2)c1S(=O)(=O)N1CCN(c2ccc(C)cc2C)CC1` was inactive: -29.6%.
Regarding `COc1cccc(Nc2nc3ccccc3c3nncn23)c1`, the “activity change, positive = activation” value is inactive: -7.3%.
For the compound `Cn1c(SCc2cc(=O)c3cc(Cl)ccc3[nH]2)nnc1-c1ccccc1`, the “activity change, positive = activation” value was inactive: -30.6%.
In the case of `CCCNC(=O)CCCN1C(=O)CCn2nc(-c3cccn3C)cc21`, the “activity change, positive = activation” value is inactive: -2.71%.
For `CCc1ccc2oc(-c3ccc(NC(=O)c4cc5ccccc5o4)cc3)nc2c1` the value was inactive: 9% [at 11.5 µM, percent change from vehicle, -100% = no light]; for `COCCCNC(=O)c1sc2nc(C)c(C(=O)Nc3ccc(C)cc3C)c(-c3ccccc3Cl)c2c1N`, inactive: -0.784%.
The value for `COc1ccc(C(=O)NCc2ccc3c(c2)CCN3C(=O)c2ccccc2)cc1` was inactive: 14.2%.
With `COc1ccc(NS(=O)(=O)c2ccc(-c3cnc(C4CC4)o3)cc2)cc1Cl`, the “activity change, positive = activation” value was inactive: -37.1%.
The value for `O=C(CCSCc1cnn(-c2ccccc2)c1-n1cccc1)NCc1ccccc1Cl` was inactive: -15.9%; that for `Cc1cc(C)cc(Nc2cc(C(=O)NCCCN(C)C3CCCCC3)c3ccccc3n2)c1` was inactive: -28.5%.
Turning to `CC(=O)N[C@H]1[C@@H]([C@H](O)[C@H](O)CO)OC(C(=O)O)=C[C@@H]1N=C(N)N`, the “activity change, positive = activation” value was inactive: -9.17%.
The value for `Cc1ccc(Cl)cc1N1CCN(C(=O)c2ccc(CS(=O)c3ccccc3)o2)CC1` (stereo unspecified) was inactive: -41.7%.
For `COCCNC(=O)c1nn(-c2ccc(C)cc2)c(=O)n(C)c1=O` the value was inactive: -10.6%.
For `CCN(CC)CCCNC(=O)c1cn(CC(C)C)c(=O)c2c1c1ccccc1n2C` the value was inactive: -10.9%; for `COc1ccc(-c2nnc(SCC(=O)N3CCc4ccccc43)o2)cc1OC`, inactive: -2.79%.
Turning to `Cc1ccc2nc(-c3ccsc3)c(Nc3ccc(Cl)cc3)n2c1`, the “activity change, positive = activation” value is inactive: -21.2%.
Turning to `COc1ccccc1Nc1c2c(nc3ccc(NC(=O)c4ccccc4F)cc13)CCCC2`, the “activity change, positive = activation” value was inactive: -29.4%.
The value for `Cc1cccc(-c2noc(-c3ccccc3OCC(=O)Nc3ccccc3[N+](=O)[O-])n2)c1` was inactive: -7.63%; that for `Cc1ccn2cc(CNC(=O)c3cccc(C(F)(F)F)c3)nc2c1` was inactive: -17.3%; that for `CC(=O)c1cccc(NC(=O)[C@H]2O[C@@H]3OC(C)(C)O[C@@H]3[C@H]3OC(C)(C)O[C@H]32)c1` was inactive: -17.4%.
Regarding `COc1ccc(-c2nc3scc(CCNS(=O)(=O)c4ccc(Oc5ccccc5)cc4)n3n2)cc1`, the “activity change, positive = activation” value was inactive: -32%.
For `CCOC(=O)c1ccc(NC(=O)C(C)Sc2nc(=O)cc(N)n2CCc2ccccc2)cc1` (stereo unspecified) the value was inactive: -25.3%.
The value for `COc1ccc(OCC(=O)N(Cc2sccc2C)C2CCS(=O)(=O)C2)cc1` (stereo unspecified) was inactive: -11.6%.
For `O=C(NCc1ccccc1Cl)c1c2c(nc3ccccc13)C(=O)N(C1CCCCC1)C2` the value was inactive: 0.0418%; for `CCCCC(=O)Nc1ccc(OCc2cc(=O)n3c(C)csc3n2)cc1`, inactive: 2.36%.
Take `CCN(CC)c1ccc(C2C(C(=O)Nc3ccccc3C)=C(C)Nc3ncnn32)cc1` (stereo unspecified): the “activity change, positive = activation” value was inactive: -13%.
For the compound `COC(=O)CCCCCn1c(-c2ccccc2)cn2c3c(=O)n(C)c(=O)n(C)c3nc12`, the “activity change, positive = activation” value is inactive: -12.3%.
`COc1ccc(OC)c(C(=O)CSc2ncc3c(n2)-c2ccccc2N(Cc2ccccc2C)S3(=O)=O)c1`: the “activity change, positive = activation” value is inactive: 18.7%.
As for `Cc1ccn2c(=O)cc(CSc3nnc(C)s3)nc2c1`, the “activity change, positive = activation” value is inactive: 19.1%.
With `Cc1cc2c(cc1NC(=O)c1ccccc1Cl)n(C)c(=O)c(=O)n2C`, the “activity change, positive = activation” value is inactive: -7.48%.
As for `Cc1cccc(CCn2c(=O)c3ccccc3n(CC(=O)Nc3ccccc3F)c2=O)c1`, the “activity change, positive = activation” value is inactive: -22.3%.
The value for `CCN(Cc1ccccc1)Cc1c(O)ccc2c(=O)c(-c3ccc(Cl)cc3)c(C(F)(F)F)oc12` was inactive: -5.4%; that for `Cc1ccc(C)c(N2CCN(CCCNC(=O)c3cnn(-c4ccccc4)c3C3CCN(C(=O)OC(C)(C)C)CC3)CC2)c1` was inactive: -54%; that for `COc1ccc(NS(=O)(=O)c2ccc3[nH]c(=O)ccc3c2)cc1OC` was inactive: -7.43%.
The value for `CCOc1ccc(S(=O)(=O)Nc2cccc(OC)c2)c2cccnc12` was inactive: -30.7%; that for `O=C1CS(=O)(=O)C2(C(=O)N(Cc3ccccc3)c3ccccc32)N1c1ccc(F)c(Cl)c1` (stereo unspecified) was inactive: -24.1%.
As to `COc1ccc(S(=O)(=O)N(CC(=O)Nc2ccccc2Cl)Cc2ccccc2)cc1`, the “activity change, positive = activation” value was inactive: -29.2%.
For `Cc1ccc(CCNC(=O)CN2C(=O)COc3ccc(S(=O)(=O)N4CCCCCC4)cc32)cc1` the value was inactive: -24.5%; for `CN1C(=O)c2ccccc2Sc2ccc(NC(=O)NCc3ccc(Cl)cc3)cc21`, inactive: -58%; for `COc1ccccc1C(=O)Oc1c(Sc2ccccc2)c(C)nn1-c1ccccc1`, inactive: -34.6%.
For `CCN(CC)C(=O)Cn1c(=O)n(Cc2ccc(C(=O)NCCCOC)cc2)c(=O)c2ccccc21` the value was inactive: -26.3%; for `O=C(Nc1ccc(F)cc1F)c1cc(S(=O)(=O)N2CCCCC2)c[nH]1`, inactive: -24.5%; for `CCn1c2c(c(=O)n3ncc(C(=O)N4CCN(c5ccc(C(C)=O)cc5)CC4)c13)CN(Cc1ccc(OC)cc1)CC2`, inactive: -47.9%.
With `Cc1ccc(C)c(N2C(=O)N(Cc3cccc(C(F)(F)F)c3)c3ccccc3S2(=O)=O)c1`, the “activity change, positive = activation” value is inactive: -27.8%.
As for `Cc1ccc(C)c(NC(=O)N2CCN3CCCCC3C2)c1` (stereo unspecified), the “activity change, positive = activation” value was inactive: -11.7%.
